Laboratory results published in PubChem BioAssay AID662 (National Center for Advancing Translational Sciences (NCATS), 2007).
Hit rate of the full screen: of about 71,000 compounds, about 1,800 (2.5%) were called active. This list was built around the results that the source calls inconclusive (neither active nor inactive); the mix of calls is not that of the screen. Calls come from the whole dose curve; as a rule, active = well fitted activation curve with a large enough effect in the signal ratio, with a control signal flat (not every such curve was filed as active); inconclusive = small, poorly fitted or top-dose-only effect, or effect the other way, or a change in a side signal; inactive = flat fitted curve, though single readings scatter; the % refers to the signal ratio. A potency beside an inconclusive call is a rough fit, not a confirmed value.
Potency is the fitted concentration of half-maximal effect; tags give direction and shape of the fitted curve.

Assay: Cell signaling CRE-BLA (Fsk stim); for activity change, negative = inhibition: % of control where 0% means no effect
Conditions: CHO CRE-bla reporter (cAMP response element driving beta-lactamase), forskolin EC10, beta-lactamase ratio; activity change, negative = inhibition: at 38.2 µM (top of the series) unless noted
Procedure, shortened: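 Beta-lactamase reporter under a cAMP responsive element in CHO cells; compounds tested in titration series against EC10 NKH 477, 3 h at 37 °C. Read-out: CCF4 FRET ratio 460nm/530nm (excitation 405nm) giving %Activity, fitted to AC50.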
With `Cn1c(=O)n(Cc2ccccc2)c(=O)c2c1nc1n2CCCN1C1CCCCC1` the activity change, negative = inhibition was inconclusive: -14%. In the case of `CC1=C(C(=O)OCc2ccccc2)C(c2ccco2)C2=C(CC(C)(C)CC2=O)N1` (configuration not stated), the activity change, negative = inhibition is reported as inconclusive: -20.1%. With `O=C(Nc1ccc(Cl)cc1F)C1CCN(S(=O)(=O)c2cccnc2)CC1` the activity change, negative = inhibition was inconclusive: -8.27%. With `CCOc1ccc(N2C(=O)CC(/C=C3/N(C)c4ccccc4C3(C)C)C2=O)cc1` (configuration not stated) the activity change, negative = inhibition was inconclusive: -4.58%. With `COC(=O)C1=C(C)NC(=O)NC1c1ccccc1` (configuration not stated) the activity change, negative = inhibition was inconclusive: -10.8%. For `COc1ccc(-c2nnc(SCc3csc(N)n3)n2C)cc1`, the Potency was inconclusive: 31.6 µM [rising, single point]. In the case of `c1cnc(N2CCN(Cc3c[nH]c4ccccc34)CC2)nc1`, the activity change, negative = inhibition is reported as inconclusive: -4.92%. In the case of `CCC(c1nnnn1CCc1ccccc1)N(Cc1ccco1)Cc1cc2c(C)ccc(C)c2[nH]c1=O` (configuration not stated), the “activity change, negative = inhibition” value is reported as inactive: -8.38%. In the case of `O=C(O)[C@@H]1[C@@H](C(=O)NCc2cccnc2)[C@@H]2C=C[C@@H]1O2`, the activity change, negative = inhibition is reported as inactive: -1.22% [at 7.6 µM]. In the case of `Cc1sc2c(c1C)CN(C1CC(C)(C)NC(C)(C)C1)CN2C(=O)c1ccco1`, the “activity change, negative = inhibition” value is reported as inactive: -18.5%. For `COc1ccccc1N1CCN(c2cc(=O)n(-c3ccccc3Cl)c(=O)[nH]2)CC1`, the Potency was inconclusive: 25.1 µM [falling, single point]. With `Cc1ccc(-n2nnc3c(=O)n(CC(=O)N4CCCC4)cnc32)cc1` the activity change, negative = inhibition was inconclusive: -16%. In the case of `CCOC(=O)c1c(C)c(C(=O)Nc2ccc(N(C)C)cc2)c(C)n1CC`, the Potency is reported as inconclusive: 15.8 µM [rising, partial curve]. With `CCC(C)NC(=O)c1cc(-c2ccc(OC)cc2)on1` (configuration not stated) the activity change, negative = inhibition was inconclusive: -2.79%. In the case of `COc1ccc(OCCC(=O)OCC(=O)NCc2ccco2)cc1`, the “activity change, negative = inhibition” value is reported as inactive: -6.67%. In the case of `COc1cccc(-c2nnc(SCC(N)=O)n2-c2ccc(Cl)cc2)c1`, the “activity change, negative = inhibition” value is reported as inactive: 2.66%. For `CC(NC(=O)COc1cc(=O)n(C)c2ccccc12)c1ccc2c(c1)OCCO2` (configuration not stated), the Potency was inconclusive: 6.31 µM [rising, partial curve]. For `COc1ccc(S(=O)(=O)CCC(=O)N2c3ccccc3CC2C)cc1` (configuration not stated), the Potency was inconclusive: 0.398 µM [rising, single point]. With `CCCc1cc(=O)oc2cc3occ(C)c3cc12` the Potency was inconclusive: 15.8 µM [rising, single point]. In the case of `CCN(Cc1ccccc1)C(c1ccncc1)c1nnnn1C(C)(C)C` (configuration not stated), the “activity change, negative = inhibition” value is reported as inactive: -0.49%. For `Cc1ccc2nc3c(cc(C(=O)NCc4ccccc4)c(=N)n3CCCn3ccnc3)c(=O)n2c1`, the activity change, negative = inhibition was inconclusive: 0.931% [fluorescent]. With `Nc1nnc(SCCOc2ccccc2)s1` the “activity change, negative = inhibition” value was inactive: -18.9%. With `Cc1nn(CC(O)Cn2cnc3c2c(=O)n(C)c(=O)n3C)c(C)c1Br` (configuration not stated) the activity change, negative = inhibition was inconclusive: 11.6%. With `COC(=O)[C@@]1(C)C=C[C@@H](Cc2ccccc2)N1C(=O)c1ccccc1` the “activity change, negative = inhibition” value was inactive: -8.24%. With `CCC(C)(C)NC(=O)C(c1ccc(C)o1)N(Cc1cccs1)C(=O)Cn1nnc2ccccc21` (configuration not stated) the “activity change, negative = inhibition” value was inactive: -1.87%. In the case of `Cc1cc(=O)oc2cc(Oc3ncccn3)ccc12`, the Potency is reported as inconclusive: 0.0501 µM [falling, full curve, poor fit]. In the case of `COCCn1c(SCC(=O)Nc2nc(C)c(Cl)cc2Cl)nc2ccccc21`, the Potency is reported as inconclusive: 20 µM [rising, single point]. In the case of `O=c1c2c3c(sc2n(CCN2CCOCC2)c(=O)n1Cc1ccco1)CCCCC3`, the activity change, negative = inhibition is reported as inconclusive: 23%. For `CCOC(=O)c1oc2ccc(S(=O)(=O)N3CCOCC3)cc2c1C`, the activity change, negative = inhibition was inconclusive: 14.1%. For `CCN(CC)C(=O)C1CCCN(Cc2ccc(N(C)C)cc2)C1` (configuration not stated), the activity change, negative = inhibition was inconclusive: 13.3% [at 7.6 µM]. In the case of `COCCn1c(=O)c(CCc2ccccc2)nc2cnc(Nc3ccccc3)nc21`, the Potency is reported as inconclusive: 2.51 µM [rising, full curve]. For `O=C(Nc1nc(-c2ccco2)c(-c2ccco2)s1)C1CC(=O)N(c2ccc3c(c2)OCCO3)C1` (configuration not stated), the Potency was inconclusive: 3.16 µM [falling, single point]. With `CC(=O)c1c[nH]c2ccc(C)cc2c1=O` the activity change, negative = inhibition was inconclusive: -3.85%. With `c1ccc(Nc2cccc3ccccc23)cc1` the activity change, negative = inhibition was inconclusive: 25.6%. In the case of `Cc1nc2sc3c(c2c(=O)n1/N=C/c1ccco1)CCCC3`, the “activity change, negative = inhibition” value is reported as inactive: -2.65%. For `CN1CCN(S(=O)(=O)c2cccc(S(=O)(=O)c3ccc(Cl)c(Cl)c3)c2)CC1`, the activity change, negative = inhibition was inconclusive: 14.9% [at 7.6 µM]. For `CCCC(=O)Nc1nc2ccc3nc(C)sc3c2s1`, the Potency was inconclusive: 10 µM [rising, partial curve]. For `Cn1c(=O)c2c(nc(NCc3ccccc3)n2C)n(C)c1=O`, the activity change, negative = inhibition was inconclusive: 26%. For `Cc1nnc(SCC(=O)Nc2sccc2C(N)=O)n1Cc1ccccc1`, the activity change, negative = inhibition was inconclusive: 9.78%. With `O=C(O)C1CCCCC1C(=O)NCCCN1CCOCC1` (configuration not stated) the activity change, negative = inhibition was inconclusive: 12.6%. In the case of `CN1CCN(c2ncc3nc(-c4ccc(F)cc4)c(=O)n(Cc4cccs4)c3n2)CC1`, the Potency is reported as inconclusive: 0.794 µM [rising, partial curve]. In the case of `COc1ccc(N(CC(=O)NCCSC(C)(C)C)S(C)(=O)=O)c(OC)c1`, the activity change, negative = inhibition is reported as inconclusive: -12.1% [at 7.6 µM]. In the case of `CN1/C(=C\C(=O)CN2C(=O)NC3(CCCCCC3)C2=O)C(C)(C)c2ccccc21`, the “activity change, negative = inhibition” value is reported as inactive: -4.91%. With `CCn1c(N)c(C(=O)NCc2ccc3c(c2)OCO3)sc1=S` the Potency was inconclusive: 12.6 µM [rising, single point]. In the case of `COc1cc(C2C(C(=O)c3ccco3)=C(O)C(=O)N2c2cc(C)on2)cc(Br)c1O` (configuration not stated), the activity change, negative = inhibition is reported as inconclusive: -9.95%. In the case of `CC(C)n1c(C(=O)OCC(=O)NCc2ccc3c(c2)OCO3)cc2sccc21`, the “activity change, negative = inhibition” value is reported as inactive: 17.8%. With `C=CCNc1nc(-c2ccc(OC)cc2OC)cs1` the “activity change, negative = inhibition” value was inactive: 23.6%. In the case of `Cn1c(=O)n(CCc2ccccc2)c(=O)c2c1nc1n2CCCN1c1ccc(F)cc1`, the “activity change, negative = inhibition” value is reported as inactive: 8.29%. For `COc1ccc(C(c2sc3ncnn3c2O)N2CC(C)OC(C)C2)cc1OC` (configuration not stated), the Potency was active: 12.6 µM. For `Cc1cccc(CNc2cc(-c3ccoc3)ncn2)c1`, the activity change, negative = inhibition was inconclusive: 26.6%. In the case of `COc1ccc2nc(CC(C)(C)CC(=O)O)c[n+]([O-])c2c1`, the activity change, negative = inhibition is reported as inconclusive: 20.5%. For `C=CCNC(=O)c1ccccc1Cl`, the Potency was inconclusive: 2 µM [falling, partial curve, poor fit].
